Measured values taken from publication PMC5380967.
Positions count from the first letter of the chain named. Results are given in words; binding and its absence hold for the method and conditions named. For part of these data: In cells and extracts the contact can be indirect. Some binding calls cover weakened binding; strength is not graded here. For part of these data: Sequences can lack the tags named with a protein.

Sequences of proteins named here, by UniProt entry; tags and fusion partners are left off.
UniProt O43303: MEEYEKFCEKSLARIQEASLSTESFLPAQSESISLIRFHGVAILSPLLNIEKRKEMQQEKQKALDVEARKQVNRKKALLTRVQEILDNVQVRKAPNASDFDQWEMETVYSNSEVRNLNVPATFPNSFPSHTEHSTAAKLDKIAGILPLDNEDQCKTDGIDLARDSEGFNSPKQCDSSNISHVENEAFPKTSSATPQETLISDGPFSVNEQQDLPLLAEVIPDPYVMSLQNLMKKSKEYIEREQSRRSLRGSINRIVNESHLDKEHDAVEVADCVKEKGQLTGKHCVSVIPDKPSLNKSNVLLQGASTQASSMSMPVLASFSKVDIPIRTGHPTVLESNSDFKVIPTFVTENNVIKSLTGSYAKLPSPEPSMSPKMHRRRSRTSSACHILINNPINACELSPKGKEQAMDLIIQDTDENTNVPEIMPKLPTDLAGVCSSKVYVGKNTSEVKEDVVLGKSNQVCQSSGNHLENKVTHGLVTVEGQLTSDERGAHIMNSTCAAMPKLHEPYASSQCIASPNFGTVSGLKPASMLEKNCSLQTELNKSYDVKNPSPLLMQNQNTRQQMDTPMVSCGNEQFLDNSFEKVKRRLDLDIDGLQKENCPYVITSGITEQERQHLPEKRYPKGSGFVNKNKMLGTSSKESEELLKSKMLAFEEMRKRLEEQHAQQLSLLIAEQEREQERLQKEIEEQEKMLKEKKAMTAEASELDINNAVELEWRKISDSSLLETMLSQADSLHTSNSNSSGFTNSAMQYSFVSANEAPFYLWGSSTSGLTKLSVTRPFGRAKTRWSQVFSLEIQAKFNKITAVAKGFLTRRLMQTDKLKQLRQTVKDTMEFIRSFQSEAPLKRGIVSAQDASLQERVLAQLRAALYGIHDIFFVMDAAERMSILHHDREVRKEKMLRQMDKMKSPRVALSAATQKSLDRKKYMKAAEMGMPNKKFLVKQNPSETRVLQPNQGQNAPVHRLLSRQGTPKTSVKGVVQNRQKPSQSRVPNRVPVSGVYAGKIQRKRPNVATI
UniProt Q96J02: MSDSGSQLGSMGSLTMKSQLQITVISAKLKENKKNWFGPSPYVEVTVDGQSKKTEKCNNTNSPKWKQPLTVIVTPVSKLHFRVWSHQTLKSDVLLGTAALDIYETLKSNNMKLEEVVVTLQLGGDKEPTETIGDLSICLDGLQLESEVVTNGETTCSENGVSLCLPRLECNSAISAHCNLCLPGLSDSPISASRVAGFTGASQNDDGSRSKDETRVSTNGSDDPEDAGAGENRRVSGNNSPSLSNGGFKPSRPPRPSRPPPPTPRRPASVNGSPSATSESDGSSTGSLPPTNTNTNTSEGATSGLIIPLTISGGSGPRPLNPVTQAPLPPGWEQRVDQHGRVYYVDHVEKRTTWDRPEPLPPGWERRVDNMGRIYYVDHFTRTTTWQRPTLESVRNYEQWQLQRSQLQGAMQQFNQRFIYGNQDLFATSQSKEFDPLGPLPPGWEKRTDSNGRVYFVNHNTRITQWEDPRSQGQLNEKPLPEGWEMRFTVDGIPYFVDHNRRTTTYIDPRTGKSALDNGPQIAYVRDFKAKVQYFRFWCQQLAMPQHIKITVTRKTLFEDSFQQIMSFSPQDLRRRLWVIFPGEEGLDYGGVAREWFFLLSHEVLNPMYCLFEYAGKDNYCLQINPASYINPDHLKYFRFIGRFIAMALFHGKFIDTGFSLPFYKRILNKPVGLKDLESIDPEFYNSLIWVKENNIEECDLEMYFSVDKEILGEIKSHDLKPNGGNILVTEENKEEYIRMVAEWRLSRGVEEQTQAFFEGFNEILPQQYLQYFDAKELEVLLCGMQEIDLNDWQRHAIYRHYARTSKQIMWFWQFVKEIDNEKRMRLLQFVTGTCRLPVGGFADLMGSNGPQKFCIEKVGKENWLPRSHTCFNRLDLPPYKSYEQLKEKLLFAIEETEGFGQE
UniProt Q07820: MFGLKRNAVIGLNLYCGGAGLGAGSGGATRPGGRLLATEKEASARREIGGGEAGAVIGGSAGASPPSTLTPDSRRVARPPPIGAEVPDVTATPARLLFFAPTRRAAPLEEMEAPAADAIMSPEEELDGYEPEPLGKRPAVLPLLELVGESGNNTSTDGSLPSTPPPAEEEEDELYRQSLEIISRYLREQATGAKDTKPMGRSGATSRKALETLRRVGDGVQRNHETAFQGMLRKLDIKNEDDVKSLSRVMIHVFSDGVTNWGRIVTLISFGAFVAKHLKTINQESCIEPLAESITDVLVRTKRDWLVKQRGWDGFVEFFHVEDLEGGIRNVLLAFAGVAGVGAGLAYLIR
UniProt Q93008: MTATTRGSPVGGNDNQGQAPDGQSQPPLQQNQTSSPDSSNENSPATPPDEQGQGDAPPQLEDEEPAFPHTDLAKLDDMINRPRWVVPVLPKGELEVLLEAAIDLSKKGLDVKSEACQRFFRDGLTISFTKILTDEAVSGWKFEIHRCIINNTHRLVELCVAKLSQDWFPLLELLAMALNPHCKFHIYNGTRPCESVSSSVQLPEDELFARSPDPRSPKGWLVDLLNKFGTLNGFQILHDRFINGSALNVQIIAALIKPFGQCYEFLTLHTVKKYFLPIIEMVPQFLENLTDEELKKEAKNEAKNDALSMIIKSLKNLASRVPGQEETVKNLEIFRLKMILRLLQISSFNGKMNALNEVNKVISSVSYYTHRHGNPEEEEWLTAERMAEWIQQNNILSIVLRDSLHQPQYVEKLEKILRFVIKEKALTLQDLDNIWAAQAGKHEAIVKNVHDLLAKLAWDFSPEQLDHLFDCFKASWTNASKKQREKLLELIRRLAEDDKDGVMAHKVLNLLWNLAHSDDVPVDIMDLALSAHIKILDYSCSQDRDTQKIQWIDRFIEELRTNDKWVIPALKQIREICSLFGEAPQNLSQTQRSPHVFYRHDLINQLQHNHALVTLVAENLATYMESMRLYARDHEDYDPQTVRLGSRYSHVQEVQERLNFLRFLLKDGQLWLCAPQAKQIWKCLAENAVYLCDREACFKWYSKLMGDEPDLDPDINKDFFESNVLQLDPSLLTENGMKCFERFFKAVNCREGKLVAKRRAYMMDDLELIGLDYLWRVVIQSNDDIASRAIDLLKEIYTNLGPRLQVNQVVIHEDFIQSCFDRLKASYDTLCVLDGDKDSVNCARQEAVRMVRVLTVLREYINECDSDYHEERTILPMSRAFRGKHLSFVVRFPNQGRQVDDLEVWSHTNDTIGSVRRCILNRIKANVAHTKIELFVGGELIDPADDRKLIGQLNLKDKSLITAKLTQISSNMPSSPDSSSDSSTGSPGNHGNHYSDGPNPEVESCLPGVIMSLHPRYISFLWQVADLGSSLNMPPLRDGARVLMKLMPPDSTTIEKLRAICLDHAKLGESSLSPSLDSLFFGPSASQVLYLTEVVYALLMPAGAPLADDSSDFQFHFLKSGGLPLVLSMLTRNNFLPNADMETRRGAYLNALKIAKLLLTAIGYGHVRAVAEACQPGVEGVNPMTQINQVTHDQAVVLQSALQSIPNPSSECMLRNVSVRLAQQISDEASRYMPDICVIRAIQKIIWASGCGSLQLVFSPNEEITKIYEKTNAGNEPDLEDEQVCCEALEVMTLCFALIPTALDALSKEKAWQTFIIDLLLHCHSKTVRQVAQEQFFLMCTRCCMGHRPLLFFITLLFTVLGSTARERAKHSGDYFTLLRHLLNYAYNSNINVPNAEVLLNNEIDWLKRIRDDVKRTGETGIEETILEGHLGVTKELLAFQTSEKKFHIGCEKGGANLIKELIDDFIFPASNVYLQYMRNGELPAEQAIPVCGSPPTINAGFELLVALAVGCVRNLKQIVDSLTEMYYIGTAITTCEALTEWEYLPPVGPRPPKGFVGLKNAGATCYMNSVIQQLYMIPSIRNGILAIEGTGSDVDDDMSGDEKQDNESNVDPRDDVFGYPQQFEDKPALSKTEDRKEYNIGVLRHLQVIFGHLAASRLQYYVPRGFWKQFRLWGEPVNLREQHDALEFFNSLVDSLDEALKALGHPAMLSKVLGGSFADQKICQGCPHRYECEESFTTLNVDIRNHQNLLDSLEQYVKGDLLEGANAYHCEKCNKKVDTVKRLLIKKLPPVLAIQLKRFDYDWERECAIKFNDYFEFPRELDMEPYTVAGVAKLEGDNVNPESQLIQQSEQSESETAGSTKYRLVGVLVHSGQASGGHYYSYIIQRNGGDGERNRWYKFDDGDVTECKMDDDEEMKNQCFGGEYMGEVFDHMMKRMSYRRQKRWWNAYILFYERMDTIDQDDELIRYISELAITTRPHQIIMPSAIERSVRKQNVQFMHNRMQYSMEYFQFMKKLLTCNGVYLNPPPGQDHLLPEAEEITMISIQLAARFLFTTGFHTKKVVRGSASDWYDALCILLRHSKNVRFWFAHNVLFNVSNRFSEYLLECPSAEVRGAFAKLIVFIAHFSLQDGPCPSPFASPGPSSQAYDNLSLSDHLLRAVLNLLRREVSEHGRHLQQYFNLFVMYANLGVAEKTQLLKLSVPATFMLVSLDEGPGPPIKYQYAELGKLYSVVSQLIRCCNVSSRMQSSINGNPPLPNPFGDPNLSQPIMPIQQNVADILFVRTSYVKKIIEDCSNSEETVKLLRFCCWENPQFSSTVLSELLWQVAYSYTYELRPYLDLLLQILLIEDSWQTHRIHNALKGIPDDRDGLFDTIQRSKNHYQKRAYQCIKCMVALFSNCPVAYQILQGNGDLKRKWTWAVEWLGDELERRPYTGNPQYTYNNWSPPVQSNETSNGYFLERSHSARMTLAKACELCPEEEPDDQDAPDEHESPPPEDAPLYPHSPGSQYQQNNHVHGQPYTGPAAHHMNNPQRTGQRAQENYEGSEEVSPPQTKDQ

T1: CEP131/K254R (human) (UniProt Q9UPN4)
T1 sequence: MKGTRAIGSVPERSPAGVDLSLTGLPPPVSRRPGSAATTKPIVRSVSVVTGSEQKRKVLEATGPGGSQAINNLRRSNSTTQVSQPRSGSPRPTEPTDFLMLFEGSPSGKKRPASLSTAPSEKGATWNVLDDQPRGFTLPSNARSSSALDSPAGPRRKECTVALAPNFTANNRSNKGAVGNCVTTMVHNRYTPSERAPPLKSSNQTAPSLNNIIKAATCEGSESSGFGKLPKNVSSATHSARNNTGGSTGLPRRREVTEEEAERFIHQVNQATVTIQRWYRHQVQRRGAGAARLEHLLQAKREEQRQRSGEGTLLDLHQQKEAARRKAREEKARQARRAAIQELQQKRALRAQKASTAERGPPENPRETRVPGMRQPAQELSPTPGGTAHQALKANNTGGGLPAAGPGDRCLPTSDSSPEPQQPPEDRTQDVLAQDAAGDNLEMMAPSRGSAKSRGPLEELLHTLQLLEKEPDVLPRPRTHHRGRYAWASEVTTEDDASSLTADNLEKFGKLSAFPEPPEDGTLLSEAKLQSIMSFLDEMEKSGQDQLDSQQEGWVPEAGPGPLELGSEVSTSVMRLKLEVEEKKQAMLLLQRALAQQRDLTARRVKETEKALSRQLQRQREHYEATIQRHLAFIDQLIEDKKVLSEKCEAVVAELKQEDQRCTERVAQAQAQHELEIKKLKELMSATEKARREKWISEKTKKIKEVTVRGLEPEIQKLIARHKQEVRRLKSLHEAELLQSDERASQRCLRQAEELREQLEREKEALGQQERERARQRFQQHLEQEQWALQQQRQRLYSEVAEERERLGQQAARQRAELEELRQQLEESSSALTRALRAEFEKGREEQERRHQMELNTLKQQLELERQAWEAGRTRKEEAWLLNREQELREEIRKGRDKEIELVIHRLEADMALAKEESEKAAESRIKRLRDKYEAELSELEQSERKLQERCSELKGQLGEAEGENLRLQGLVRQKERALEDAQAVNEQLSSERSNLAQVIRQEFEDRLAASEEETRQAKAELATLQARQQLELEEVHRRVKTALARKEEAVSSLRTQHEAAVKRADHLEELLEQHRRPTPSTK

T2: CEP131/wt (human) (UniProt Q9UPN4)
T2 sequence: T1 sequence with R254K

T3: CEP131, centriolar satellite protein, endogenous (human (endogenous in HeLa, MCF-7, HEK293T, U2OS)) (UniProt Q9UPN4)
T3 sequence: T1 sequence with R254K

T4: FLAG-CEP131 (human) (UniProt Q9UPN4)
T4 sequence: T1 sequence with R254K

T5: USP33, deubiquitinase, endogenous (human (endogenous in HeLa, MCF-7, HEK293T, U2OS)) (UniProt Q8TEY7)
T5 sequence: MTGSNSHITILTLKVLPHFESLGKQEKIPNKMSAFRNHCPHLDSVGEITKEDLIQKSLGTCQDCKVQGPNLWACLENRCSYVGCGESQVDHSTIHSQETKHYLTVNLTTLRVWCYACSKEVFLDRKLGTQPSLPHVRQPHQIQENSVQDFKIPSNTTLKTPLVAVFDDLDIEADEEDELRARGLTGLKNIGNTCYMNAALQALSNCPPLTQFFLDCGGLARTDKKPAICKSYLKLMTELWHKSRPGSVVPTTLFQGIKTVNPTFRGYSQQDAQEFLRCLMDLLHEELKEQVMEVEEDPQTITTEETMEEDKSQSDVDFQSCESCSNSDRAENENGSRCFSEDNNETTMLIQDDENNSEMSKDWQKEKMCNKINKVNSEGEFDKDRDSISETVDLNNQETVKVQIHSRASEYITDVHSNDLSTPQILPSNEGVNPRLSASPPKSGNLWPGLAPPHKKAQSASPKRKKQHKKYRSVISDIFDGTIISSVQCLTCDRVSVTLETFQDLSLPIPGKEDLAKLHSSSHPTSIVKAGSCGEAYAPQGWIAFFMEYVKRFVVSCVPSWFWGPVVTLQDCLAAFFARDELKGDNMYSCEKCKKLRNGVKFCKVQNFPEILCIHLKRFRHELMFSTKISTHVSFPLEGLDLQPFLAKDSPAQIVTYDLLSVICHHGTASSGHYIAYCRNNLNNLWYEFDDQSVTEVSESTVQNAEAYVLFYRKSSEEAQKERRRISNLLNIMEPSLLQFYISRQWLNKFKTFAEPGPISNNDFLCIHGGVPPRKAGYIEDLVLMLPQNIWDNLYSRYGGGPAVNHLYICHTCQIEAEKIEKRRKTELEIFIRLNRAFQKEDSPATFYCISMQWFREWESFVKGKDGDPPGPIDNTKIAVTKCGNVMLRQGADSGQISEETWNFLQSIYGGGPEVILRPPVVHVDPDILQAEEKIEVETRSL

B1: CEP131, centriolar satellite protein, endogenous (protein, UniProt Q9UPN4 1-1083)
chain: T1 sequence with R254K

Assays:
[1] = biological target: T1, CEP131/K254R (human); assay: co-IP; association of USP9X with CEP131/wt or CEP131/K254R (Fig. 4h, left panel); cells and tags not stated
[2] = biological target: T2, CEP131/wt (human); assay: as above
[3] = biological target: CP110, centrosomal protein, endogenous (human (endogenous in HeLa, MCF-7, HEK293T, U2OS)) (UniProt O43303); assay: co-IP; endogenous proteins; whole-cell lysates of HeLa, MCF-7, HEK293T and U2OS cells in NETN buffer (50 mM Tris-HCl pH 8.0, 150 mM NaCl, 0.2% Nonidet P-40, 2 mM EDTA); protein G magnetic beads; immunoblot; also U2OS cells synchronized by double-thymidine block and released (association detected primarily in S and G2 phases)
[4] = biological target: T3, CEP131, centriolar satellite protein, endogenous (human (endogenous in HeLa, MCF-7, HEK293T, U2OS)); assay: as above
[5] = biological target: T4, FLAG-CEP131 (human); assay: SEC; FLAG-CEP131 anti-FLAG affinity eluate from HeLa cells fractionated on Superose 6 gel filtration; fractions immunoblotted (Supplementary Fig. 1b)
[6] = biological target: itchy E3 ubiquitin protein ligase (ITCH) (human (endogenous in HeLa)) (UniProt Q96J02); assay: co-IP; immunoprecipitation of ITCH or MCL1, blot for USP9X and CEP131 (Supplementary Fig. 10b); cells not given
[7] = biological target: MCL1 (UniProt Q07820); assay: as above
[8] = biological target: ubiquitin-specific peptidase 9, X-linked (USP9X), endogenous (human (endogenous in HeLa, MCF-7, HEK293T, U2OS)) (UniProt Q93008); assay: SEC; HeLa cell extracts fractionated on a Superose 6 size exclusion column (FPLC); fractions immunoblotted
[9] = biological target: ubiquitin-specific peptidase 9, X-linked (USP9X), endogenous (human (endogenous in HeLa, MCF-7, HEK293T, U2OS)) (UniProt Q93008); assay: co-IP; endogenous proteins; whole-cell lysates of HeLa, MCF-7, HEK293T and U2OS cells in NETN buffer (50 mM Tris-HCl pH 8.0, 150 mM NaCl, 0.2% Nonidet P-40, 2 mM EDTA); protein G magnetic beads; immunoblot; also U2OS cells synchronized by double-thymidine block and released (association detected primarily in S and G2 phases)
[10] = biological target: T5, USP33, deubiquitinase, endogenous (human (endogenous in HeLa, MCF-7, HEK293T, U2OS)); assay: as above

Row | Molecule | binding [1] | binding [2] | binding [3] | binding [4] | binding [5] | binding [6] | binding [7] | binding [8] | binding [9] | binding [10]
1 | ubiquitin-specific peptidase 9, X-linked (USP9X), endogenous (from UniProt Q93008 1-2554) (enzyme) | binds | binds | no binding | binds | binds | binds | binds | – | – | –
2 | B1 | – | – | – | – | – | no binding | no binding | binds | binds | no binding
